# Measurements: PubChem BioAssay AID686978 (National Center for Advancing Translational Sciences (NCATS), 2013)
# Hit rate of the full screen: of about 420,000 compounds, about 64,000 (15%) were called active. Inconclusive results (about 27%) are left out. Calls come from the whole dose curve; as a rule, active = well fitted inhibition curve with a large enough effect; inconclusive = small, poorly fitted or top-dose-only effect; inactive = flat fitted curve, though single readings scatter. Not every entry of the source has a single result; some have several. They are shown here; other results are not. The source may hold further records. Values given together repeat one measurement across runs, samples, wells, individuals or studies.
# Experiment: qHTS for Inhibitors of human tyrosyl-DNA phosphodiesterase 1 (TDP1): qHTS in cells in absence of CPT; note: nearly all actives have a fitted effect of over 55% in size
# Conditions: DT40 Tdp1-/- hTDP1 cells, no CPT, ATP luminescence, 48 h
# Potency is the fitted concentration of half-maximal effect.
row,Structure (SMILES),Potency
1,COc1c(C)c2c(c(O)c1C/C=C(\C)CCC(=O)O)C(=O)OC2,"active: 184, 150, 366, 376, 114 nM [separate samples]"
